# About 64,000 (15%) of roughly 420,000 compounds were called active. Inconclusive means that the source gave no clear call. Such entries were picked first, then a sample of the others. Calls come from the whole dose curve; as a rule, active = well fitted inhibition curve with a large enough effect; inconclusive = small, poorly fitted or top-dose-only effect; inactive = flat fitted curve, though single readings scatter. No potency is given beside an inconclusive call; the fits are too rough.
# Assay: qHTS for Inhibitors of human tyrosyl-DNA phosphodiesterase 1 (TDP1): qHTS in cells in absence of CPT; note: nearly all actives have a fitted effect of over 55% in size
# Conditions: DT40 Tdp1-/- hTDP1 cells, no CPT, ATP luminescence, 48 h; activity change, negative = growth inhibition: at 46.2 µM (top of the series) unless noted
# In short: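 Seeded 400 DT40-hTDP1 cells/well (vehicle DMSO, no 20 nM CPT); pinned compounds; ≥48 hr at 37 °C; CellTiter-Glo luminescence as viability measure.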
# % is set by controls: 0 for no effect and ±100 for the full control effect; potency is the fitted concentration of half-maximal effect; tags give direction and shape of the fitted curve.
SMILES,Potency,"activity change, negative = growth inhibition"
Nc1nc(NCc2ccco2)nc(N2CCCCC2)c1[N+](=O)[O-],"inconclusive [inhibitor, partial curve]",–
Cc1c(Cl)cccc1NC(=O)CSc1nncn1-c1ccccn1,–,inactive: -12.9%
CCCCNC(=S)N/N=C/C1=CCC2CC1C2(C)C (stereo not drawn),active: 18.4 µM,–
CN1CCN(C(=O)C2(NC(=O)NCc3ccccc3)CCCCC2)CC1,–,inactive: 5.53%
CC(C)NS(=O)(=O)c1ccc(OCC(=O)NCc2cccnc2)cc1,–,inactive: -4.47%
N#C/C(=C/c1ccc(N2CCOCC2)c([N+](=O)[O-])c1)C(N)=O,–,inactive: -15.5%
Cc1nc(NC(=O)CN(C)S(=O)(=O)c2ccc(Br)cc2)sc1C,"inconclusive [inhibitor, full curve]",–
Cc1ccc(NC(=O)c2ccc(OCC3CCCO3)cc2)cc1Cl (stereo not drawn),"inconclusive [inhibitor, single point]",–
O=C(Nc1ccc([N+](=O)[O-])cc1)Nc1ccon1,active: 0.326 µM,–
Cn1c(Cc2nc3ccccc3n2C)nc2ccccc21,"inconclusive [inhibitor, single point]",–
COc1ccc(NC(=O)c2cc(-c3ccc(C)cc3O)n[nH]2)c(OC)c1,"inconclusive [inhibitor, single point]",–
CCN1CCN(C(=O)Cn2nc(-c3ccc(Cl)cc3)ccc2=O)CC1,–,inconclusive: -36.9% [inhibitor]
O=C(CN1CCCCC1)Nc1nc(-c2ccc(Cl)cc2)cs1,–,inactive: -1.67%
CCC(C)[C@H](NC(=O)N1CCn2c1nc1ccccc12)C(=O)NCCc1ccccc1 (stereo partly drawn),"inconclusive [inhibitor, single point]",–
NC(=O)CC(NC(=O)c1ccccc1)c1ccc(N2CCC(Br)CC2)c([N+](=O)[O-])c1 (stereo not drawn),active: 10.3 µM,–
CC(=O)Nc1cc(-c2ccc(N(C)C)cc2)cn2c(-c3ccc(F)c(Cl)c3)cnc12,active: 14.6 µM,–
Cc1ccc(OCCSc2ncccn2)c(C)c1,–,inactive: -0.187%
Cn1c(=O)c2cc(C(=O)N3CCN(c4ccc(Cl)cc4)CC3)sc2c2ccccc21,"inconclusive [inhibitor, partial curve]",–
COC(=O)Nc1c(C)n(C)n(-c2ccccc2)c1=O,"inconclusive [inhibitor, partial curve]",–
CC(C)(C)c1ccc(OCCC(=O)NCCc2ccc(S(N)(=O)=O)cc2)cc1,"inconclusive [inhibitor, single point]",–
Cc1nnc(SCC(=O)NNC(=O)c2ccco2)s1,–,inactive: -3.95%
CCc1ccc(OCC(=O)N/N=C(\C)c2ccc(OC(F)F)cc2)cc1,–,inactive: -27%
Cc1nnsc1C(=O)Nc1ccc(S(=O)(=O)N2CCCCC2C)cc1 (stereo not drawn),"inconclusive [inhibitor, single point]",–
CCOC(=O)c1cnc(SCC(=O)N2CCC(C(N)=O)CC2)nc1N,–,inactive: -11.3%

SMILES,Potency,"activity change, negative = growth inhibition"
Cc1cccc(C(=O)Nc2cccc(C(=O)NC3CCCC3)c2)c1,"inconclusive [inhibitor, single point]",–
O=C(c1ccc(Cl)c(S(=O)(=O)N2CCOCC2)c1)N1CCc2ccccc2C1,"inconclusive [inhibitor, single point]",–
O=C(c1cccn1-c1nnc(N2CCCC2)s1)N1CCN(c2ccc(Cl)cc2)CC1,active: 23.1 µM,–
O=C(c1csnn1)N1CCC2(CCN(Cc3cc(C(F)(F)F)cc(C(F)(F)F)c3)CC2)CC1,active: 23.1 µM,–
O=C(c1cccc(F)c1)N1CCN(C(=O)C(c2ccccc2)c2ccccc2)CC1,"inconclusive [inhibitor, single point]",–
COC(=O)c1ccc(CSc2ccc3nnc(-c4ccc(OC)c(OC)c4)n3n2)o1,active: 10.3 µM,–
C=O,–,inactive: 1.38%
CCCS(=O)(=O)NCCc1sc2nc(-c3ccc(F)cc3)nn2c1C,active: 14.6 µM,–
C/C(=N\OC(=O)Nc1ccc(Cl)cc1)c1ccc(F)c(F)c1,"inconclusive [inhibitor, single point]",–
Cc1ccnc(Nc2nc(-c3ccc(Cl)cc3)cs2)c1,active: 20.6 µM,–
CC1CCN(C(=O)Cn2c3ccccc3c3nc4n(c(=O)c32)CCS4)CC1,"inconclusive [inhibitor, partial curve]",–
COc1ccc(N2CCN(C(=O)Cn3cnc4c(cnn4-c4ccccc4)c3=O)CC2)cc1,–,inactive: 1.04%
O=S(=O)(c1ccc(-c2ccccc2)cc1)N1CCCCC1,–,inactive: -29.2%
Cc1ccc2nccc(C(=O)N3CCCC(Nc4ccc(F)cc4)C3)c2c1 (stereo not drawn),"inconclusive [inhibitor, partial curve, poor fit]",–
O=C(Nc1ccc(F)cc1)Nc1ccc(S(=O)(=O)N2CCCC2)cc1,"inconclusive [inhibitor, single point]",–
Cc1cc(C)n(-c2nnc(Nc3ccc(C)c(Cl)c3)c3ccccc23)n1,active: 8.2 µM,–
CSCCNCc1c(C(=O)N2CCOCC2)nc2c(C)cccn12,–,inconclusive: -30.2% [inhibitor]
CC1(C(=O)NCc2cccc3ccccc23)CCN1Cc1ccc(OC(F)(F)F)cc1 (stereo not drawn),"inconclusive [inhibitor, single point]",–
Cc1ccc2c(c1)C(c1ccccc1)N(C(=O)Cc1ccc(F)cc1)CC(=O)N2 (stereo not drawn),"inconclusive [inhibitor, single point]",–
COc1cc(CNC(C)(C)CO)cc(Br)c1OCc1ccc(Cl)cc1,"inconclusive [inhibitor, single point]",–
c1ccc2c(c1)nc(N1CCCCCC1)c1ccccc12,"inconclusive [inhibitor, single point]",–
O=C(NCCO)c1nc(C(=O)c2ccccc2)c2ccccc2n1,"inconclusive [inhibitor, single point]",–
CC(=O)Nc1ccc(S(=O)(=O)NCC2CCC(C(=O)NCCN(CC(C)C)CC(C)C)CC2)cc1 (stereo not drawn),"inconclusive [inhibitor, single point]",–
Cc1ccc(NC(=O)c2sccc2C)cc1S(=O)(=O)N(C)C,"inconclusive [inhibitor, single point]",–
